Laboratory results reported in the supplement of paper PMC10441789.
Some of the results follow. Antibody binding of pooled human sera (four to six donors per pool; dilution not stated) to peptides of the Trypanosoma cruzi antigen TSSA on microarrays. Quantile-normalised fluorescence in arbitrary units, mean of duplicate arrays; higher = more binding. No active / inactive call. The uninfected pools are read here as the healthy donors of the same country. The strongest signals lie near the top of the scale (about 60,000).

System: pooled sera of chronic Chagas disease patients, Argentina
Assay: antibody binding signal (normalised fluorescence) (arbitrary fluorescence units); higher = stronger serum antibody binding to peptide
Description: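 Microarray of 15-residue peptides over residues 30-55 of Trypanosoma cruzi TSSAII, each with 1 to 10 substitutions at naturally variable positions, probed with one serum pool per country.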

Sequence	antibody binding signal
GTDNKPAAGEAPSPP	3670
STPPSGTDKKPATGG	43000
GKEKKAATGGAPSPS	1670
TDKKPAAGEAPSQSG	575
SGTDNKAATGGTPSQ	818
TENKTATGGAPSQSG	17900
GTENKAATGEAPSQP	41400
GTEKKAATGGTPSQS	1080
TSSTPPSGTDKKPAT	38300
GTENKAATGEAPSPP	36100
TPPSGTDNKAAAGGT	47300
KEKKTATGEAPSPSG	5620
SGTEKKPAAGGTPSP	2470
GTDKKPATGETPSQS	37600
KKTATGETPSPPGAS	173
SGKEKKTAAGEAPSP	3340
GTDKKTAAGGTPSQP	636
GKEKKTATGETPSQP	5700
SGKDNKPATGGTPSQ	1080
GKEKKAAAGETPSQP	4510

Sequence	antibody binding signal
GTDNKTATGGTPSQS	457
SGTENKPAAGETPSP	44900
SGTDNKPATGEAPSP	43700
PPSGKDKKTATGGAP	1740
KEKKTATGETPSPSG	206
TISTPPSGTDKKAAA	31900
KENKPATGETPSQSG	37900
TENKAAAGGTPSQSG	34400
KEKKAAAGETPSQSG	177
TDNKPATGGAPSQPG	2150
SGTDNKPATGETPSP	40000
GTDKKTATGEAPSQP	13100
SGTEKKTAAGETPSQ	377
SGKENKTAAGGAPSQ	3140
SGKDKKPATGEAPSQ	44700
SGKENKTAAGEAPSQ	3770
KENKAAAGGTPSQSG	172
GTDNKPAAGGAPSPS	2070
TPPSGTENKPATGET	48300
NKPAAGGTPSPPGAS	246
